Whole data set: some 33,000 sequences, median “E-score (-0.5 to 0.5)” near -0.021, cut for the highest 2% near 0.32. The list shows a part of the results.
biological target: T1, Zap1 (UniProt P47043); assay: PBM E-score (8-mer binding enrichment) (E-score (-0.5 to 0.5)); higher = stronger / more preferred TF binding; most listed sequences are background and not binding sites; conditions: protein concentration: 200 nM; construct: GST-full length
T1 sequence: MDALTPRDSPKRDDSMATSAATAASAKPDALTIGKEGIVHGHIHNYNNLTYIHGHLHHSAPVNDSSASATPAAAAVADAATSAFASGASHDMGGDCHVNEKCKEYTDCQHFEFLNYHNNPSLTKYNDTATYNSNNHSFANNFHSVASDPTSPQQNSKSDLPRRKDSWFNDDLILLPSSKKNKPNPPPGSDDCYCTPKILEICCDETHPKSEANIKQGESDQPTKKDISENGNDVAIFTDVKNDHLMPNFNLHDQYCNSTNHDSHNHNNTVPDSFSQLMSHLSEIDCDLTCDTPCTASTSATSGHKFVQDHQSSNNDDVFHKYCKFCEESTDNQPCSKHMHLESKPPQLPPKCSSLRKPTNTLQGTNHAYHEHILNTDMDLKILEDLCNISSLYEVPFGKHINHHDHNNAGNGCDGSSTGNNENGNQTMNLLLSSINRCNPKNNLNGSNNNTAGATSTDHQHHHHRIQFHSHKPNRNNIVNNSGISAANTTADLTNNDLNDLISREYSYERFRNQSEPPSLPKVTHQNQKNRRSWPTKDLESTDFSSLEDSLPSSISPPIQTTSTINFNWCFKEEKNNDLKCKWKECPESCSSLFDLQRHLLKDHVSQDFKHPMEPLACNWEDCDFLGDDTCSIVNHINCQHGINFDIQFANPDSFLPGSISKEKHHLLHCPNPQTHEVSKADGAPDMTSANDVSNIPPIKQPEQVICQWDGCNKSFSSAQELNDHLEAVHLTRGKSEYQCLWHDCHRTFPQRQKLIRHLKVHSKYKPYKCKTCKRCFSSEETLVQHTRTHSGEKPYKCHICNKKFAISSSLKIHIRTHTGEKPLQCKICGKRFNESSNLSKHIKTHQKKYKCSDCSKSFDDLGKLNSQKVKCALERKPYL
Description: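 Universal 'all 10-mer' protein binding microarrays (Agilent AMADID 015681) probed with GST-tagged S. cerevisiae TFs (full-length or DBD) made by in vitro transcription/translation (PURExpress), about 100-200 nM. Bound TF was detected with fluorescent anti-GST. Each ungapped 8-mer (which stands for itself and its reverse complement) is scored by the PBM enrichment score (E-score), a modified Wilcoxon-Mann-Whitney statistic from -0.5 to +0.5, computed with the Universal PBM Analysis Suite. Scale: above 0.35 generally sequence-specific binding.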

Row | Sequence | PBM E-score
1 | CTATTCGC | -0.173
2 | CGACATTC | -0.104
3 | AGAGTACT | -0.144
4 | AGGGTGAG | -0.118
5 | CAACTTGG | 0.0848
6 | GACCTTAA | 0.324
7 | CTATATCC | -0.088
8 | AGGGTGAC | 0.415
9 | ATATCCTC | 0.047
10 | ATTCATAA | 0.178
11 | CCGCACAG | -0.0714
12 | CGGCAAGC | -0.226
13 | CCCTGGCG | -0.0221
14 | AGGCAATG | -0.154
15 | CTCGTGCC | -0.167
16 | CCATGACA | -0.0401
17 | CTGCTGGA | -0.298
18 | ACCTATTA | 0.195
19 | ATAAACTC | 0.0394
20 | CAGTATCG | -0.13
21 | ACAAGCCA | -0.0246
22 | CCGATAGA | 0.00345
23 | CCTTTAGA | 0.276
24 | CAACAACG | 0.00366
25 | CAGTAAAA | 0.191

Row | Sequence | PBM E-score
26 | ATCGTGAA | -0.0748
27 | ACGGTATC | 0.13
28 | AACGGCCC | -0.0782
29 | CCGTGGTA | 0.0721
30 | CTAATGAC | -0.155
31 | CCAGAAAA | 0.164
32 | CATCATAA | 0.105
33 | GCAATAGC | -0.122
34 | GGTCGACC | 0.257
35 | CTTCTTCA | -0.13
36 | CGCAATGA | -0.0116
37 | ATCAGTAA | 0.206
38 | CATGCCCG | -0.161
39 | GCAAAATA | 0.0733
40 | TAAGAATA | 0.00471
41 | ATGCGTCG | -0.176
42 | AGAATAAA | 0.208
43 | ACAGAGTG | 0.032
44 | GACGGCTA | -0.137
45 | AGGGACAT | 0.066
46 | AATGATAT | 0.0303
47 | GTGCCTAA | -0.219
48 | AGCGACCG | -0.13
49 | AACGGCGG | -0.0986
50 | CAACAGGG | 0.221

Row | Sequence | PBM E-score
51 | CTTGTTCA | 0.0285
52 | ATAACGAA | -0.0204
53 | ACAGTGGG | -0.0235
54 | AAAGTATA | -0.00639
55 | CCGTACGG | 0.162
56 | ACCTCCGC | 0.0321
57 | CAGACCAA | 0.0235
58 | CAAGGTTA | 0.466
59 | AATAATTG | 0.0626
60 | CAAGCACA | -0.188
61 | GTCGTGAA | -0.0617
62 | TGCCAGCA | -0.154
63 | GCGGTACC | 0.418
64 | GAATTAGC | -0.127
65 | TGCGCAAA | -0.0405
66 | AACACACA | 0.12
67 | GAGATCAC | -0.00515
68 | AAAGTAAT | 0.205
69 | AGAAGTAC | -0.115
70 | TCACAGCA | 0.124
71 | CGGACACC | -0.0604
72 | GTCCGACA | -0.0779
73 | GGGCGTTA | 0.0169
74 | AGCGGAGC | -0.251
75 | TAGTCTGA | -0.0314

Row | Sequence | PBM E-score
76 | ATGATTTA | 0.095
77 | ACACCGAC | 0.078
78 | CATCGGGA | 0.0534
79 | GGCAAATA | -0.0519
80 | CAGGAGGG | 0.143
81 | GTCCCATA | -0.0204
82 | CCGCCGCA | -0.00377
83 | CCCGGATA | -0.162
84 | CTCTCATC | -0.0792
85 | CGTCCACA | -0.192
86 | CGGATCAA | -0.0428
87 | CTCCGAGC | -0.162
88 | CATAATTA | 0.169
89 | AAGATGTA | -0.13
90 | ACCCTAAT | 0.407
91 | ACGGGTTC | 0.0245
92 | GGCTCTAC | -0.121
93 | TAAGACAA | 0.0851
94 | CTTCCCAC | -0.103
95 | GCAACCAA | 0.231
96 | GGAACACC | 0.105
97 | AGAACTAA | 0.0739
98 | GACCCTCC | 0.277
99 | TCAACGCA | -0.0106
100 | ATCGACGG | -0.281

Row | Sequence | PBM E-score
101 | GACGGTGA | -0.147
102 | CGTAGAGC | -0.0104
103 | CCATTCGA | -0.0556
104 | CGTTGCCA | -0.125
105 | ATCGATTC | -0.119
106 | GGGCTGAA | -0.0884
107 | AGAGATAA | -0.065
108 | CACACACG | 0.084
109 | ATCGGCTG | -0.129
110 | AACGCAGA | -0.109
111 | CGTGGACC | -0.0391
112 | AGTTTTTC | 0.183
113 | GTGTCCCA | 0.137
114 | GGAGGCAA | -0.188
115 | CAGCGAAC | -0.0226
116 | AGGTCGAG | -0.0658
117 | GCGCAATA | -0.00572
118 | GGCACATA | 0.00642
119 | AGAAGGGC | -0.092
120 | ATCAGGGG | -0.119
121 | CGGGCACG | -0.151
122 | AACCTTCT | 0.26
123 | GTAATATA | 0.231
124 | ACGTCGCA | -0.0322
125 | ACTGGGCA | -0.283

Row | Sequence | PBM E-score
126 | GTATGCTA | -0.0179
127 | CACCACAA | 0.147
128 | CCGCTAGG | 0.0355
129 | CTCGTAAC | 0.327
130 | GTAAGAAC | 0.16
131 | AATTTCAA | 0.0698
132 | ACAAACCT | 0.132
133 | CCATCAGG | 0.173
134 | ATATAAGG | 0.233
135 | TATCACGA | -0.0459
136 | GCGACACC | 0.0184
137 | GATTTTGC | -0.179
138 | CCACCGGC | -0.151
139 | ACCCCTTC | 0.234
140 | CATCGCCG | -0.234
141 | CGTCTTTA | 0.202
142 | CCCTTGCC | -0.0358
143 | ATTCTTAA | -0.00338
144 | CCGGGAAC | -0.0469
145 | CAGCACTC | -0.102
146 | ATCGGGTC | 0.139
147 | ATGTGGTA | 0.169
148 | CGTTAGAG | -0.109
149 | GCGAGAGA | -0.278
150 | ACTGATCT | -0.0207

Row | Sequence | PBM E-score
151 | ACCTCCAC | 0.246
152 | GAGGACAC | -0.0267
153 | GCTATCCA | -0.0719
154 | ACATGCGA | -0.112
155 | GCGGCAAC | -0.0926
156 | TCGTCAGA | -0.147
157 | GAGTTATA | 0.142
158 | AGGATAGG | 0.0469
159 | GGCGAGGA | -0.328
160 | CCCTTTTA | 0.0826
161 | GCCATACC | -0.0123
162 | CGGACTAG | -0.294
163 | AGAGAGAC | -0.00859
164 | GCGAATTA | 0.0522
165 | AAGTAGCC | -0.0966
166 | GACGTGGA | -0.231
167 | ACAATTGG | -0.0772
168 | GAGCTTGC | -0.303
169 | AACATTTC | 0.016
170 | CCGACTCC | -0.258
171 | TAAAAGGA | 0.217
172 | CTTGCGTC | -0.0988
173 | GGTAATCA | 0.242
174 | ATGTGAAT | 0.0575
175 | AAATCCAT | -0.00087

Row | Sequence | PBM E-score
176 | AGCTACAG | -0.206
177 | AGTTTACA | 0.18
178 | CCTCCTTC | -0.148
179 | AAAGAAGC | -0.0231
180 | CCAAGCGC | -0.279
181 | ATCCGGCG | -0.274
182 | ATACGGAT | -0.0958
183 | ACAGCGCA | -0.133
184 | GGACTGCC | -0.161
185 | ATTAGCAC | -0.0547
186 | GAGCCGCA | -0.21
187 | CTACCCCC | -0.295
188 | CCGACCGA | -0.0556
189 | GGACTATA | -0.0435
190 | CGAATTGC | -0.0962
191 | AGGTACCG | 0.43
192 | TCGCGGAA | -0.0426
193 | GAATCTGC | -0.135
194 | TCGGGAGA | -0.316
195 | AGAATCCG | -0.0807
196 | AATCTTCT | -0.0118
197 | CTGTCTTA | 0.00679
198 | AGACACGG | -0.0446
199 | ATGCCCCA | -0.141
200 | CGACTAGC | -0.2

Row | Sequence | PBM E-score
201 | CAAGGAGG | -0.0113
202 | GGCACCCC | 0.065
203 | AGCCGAGA | -0.0701
204 | CTGTGACA | -0.0182
205 | ATCAGGAA | 0.00148
206 | CCGCTGCA | -0.0498
207 | ATAGACGC | -0.147
208 | AACAGAGC | -0.189
209 | CTGCGAAG | -0.179
210 | AACATCTG | -0.137
211 | CAACAACC | 0.274
212 | CGAGCCAC | -0.181
213 | AAGATCAT | -0.0644
214 | CTAAGTTA | 0.155
215 | CCTCTGAC | 0.139
216 | TCCTCAGA | 0.0182
217 | CGCGCAAG | -0.0116
218 | ACATTTTG | 0.0143
219 | ACCCACAT | 0.253

Reference: the supplement of paper PMC3334620
